Assay results as given in the supplement of paper PMC8728848.
Some of the results follow.

Experiments:
Assay in all cases: glycan array binding signal (z-score within array); higher = stronger binding
Details in all cases: glycan notation: IUPAC condensed, linker removed
[1] = target: Neu5Ac(a2-6)Gal(b1-4)GlcNAc(b1-2)Man(a1-3)[Man(a1-6)]Man(b1-4)GlcNAc(b1-4)GlcNAc
How it was run: (§1)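 The Consortium for Functional Glycomics database supplied 3228 glycan arrays, of which those lacking an available protein sequence were dropped. The binding signal, a within-array Z-score, was averaged across arrays of the same protein sequence and across linkers. Negative scores can be read as non-binding.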

[2] = target: Neu5Ac(a2-6)Gal(b1-4)GlcNAc(b1-2)Man(a1-3)[Neu5Ac(a2-3)Gal(b1-4)GlcNAc(b1-2)Man(a1-6)]Man(b1-4)GlcNAc(b1-4)GlcNAc
How it was run: as §1

[3] = target: Neu5Ac(a2-6)Gal(b1-4)GlcNAc(b1-2)Man(a1-3)[Neu5Ac(a2-6)Gal(b1-4)GlcNAc(b1-2)Man(a1-6)]Man(b1-4)GlcNAc(b1-4)GlcNAc
How it was run: as §1

[4] = target: Neu5Ac(a2-6)Gal(b1-4)GlcNAc(b1-2)Man(a1-3)[Neu5Ac(a2-6)Gal(b1-4)GlcNAc(b1-2)Man(a1-6)]Man(b1-4)GlcNAc(b1-4)[Fuc(a1-6)]GlcNAc
How it was run: as §1

[5] = target: Neu5Ac(a2-6)Gal(b1-4)GlcNAc(b1-2)Man(a1-6)Man(b1-4)GlcNAc(b1-4)GlcNAc
How it was run: as §1

[6] = target: Neu5Ac(a2-6)Gal(b1-4)GlcNAc(b1-2)Man(a1-6)[Gal(b1-4)GlcNAc(b1-2)Man(a1-3)]Man(b1-4)GlcNAc(b1-4)GlcNAc
How it was run: as §1

[7] = target: Neu5Ac(a2-6)Gal(b1-4)GlcNAc(b1-2)Man(a1-6)[GlcNAc(b1-2)Man(a1-3)]Man(b1-4)GlcNAc(b1-4)GlcNAc
How it was run: as §1

[8] = target: Neu5Ac(a2-6)Gal(b1-4)GlcNAc(b1-2)Man(a1-6)[Man(a1-3)]Man(b1-4)GlcNAc(b1-4)GlcNAc
How it was run: as §1

[9] = target: Neu5Ac(a2-6)Gal(b1-4)GlcNAc(b1-2)[Neu5Ac(a2-6)Gal(b1-4)GlcNAc(b1-4)]Man(a1-3)[GlcNAc(b1-4)][Neu5Ac(a2-6)Gal(b1-4)GlcNAc(b1-2)[Neu5Ac(a2-6)Gal(b1-4)GlcNAc(b1-6)]Man(a1-6)]Man(b1-4)GlcNAc(b1-4)GlcNAc
How it was run: as §1

[10] = target: Neu5Ac(a2-6)Gal(b1-4)GlcNAc(b1-2)[Neu5Ac(a2-6)Gal(b1-4)GlcNAc(b1-4)]Man(a1-3)[GlcNAc(b1-4)][Neu5Ac(a2-6)Gal(b1-4)GlcNAc(b1-4)Man(a1-6)]Man(b1-4)GlcNAc(b1-4)GlcNAc
How it was run: as §1

[11] = target: Neu5Ac(a2-6)Gal(b1-4)GlcNAc(b1-2)[Neu5Ac(a2-6)Gal(b1-4)GlcNAc(b1-6)]Man(a1-6)[Neu5Ac(a2-6)Gal(b1-4)GlcNAc(b1-2)Man(a1-3)][GlcNAc(b1-4)]Man(b1-4)GlcNAc(b1-4)GlcNAc
How it was run: as §1

[12] = target: Neu5Ac(a2-6)Gal(b1-4)GlcNAc(b1-3)Gal(b1-3)GlcNAc
How it was run: as §1

[13] = target: Neu5Ac(a2-6)Gal(b1-4)GlcNAc(b1-3)Gal(b1-4)GlcNAc
How it was run: as §1

[14] = target: Neu5Ac(a2-6)Gal(b1-4)GlcNAc(b1-3)Gal(b1-4)GlcNAc(b1-2)Man(a1-3)[Neu5Ac(a2-6)Gal(b1-4)GlcNAc(b1-3)Gal(b1-4)GlcNAc(b1-2)Man(a1-6)]GalNAc
How it was run: as §1

[15] = target: Neu5Ac(a2-6)Gal(b1-4)GlcNAc(b1-3)Gal(b1-4)GlcNAc(b1-3)Gal(b1-4)GlcNAc
How it was run: as §1

[16] = target: Neu5Ac(a2-6)Gal(b1-4)GlcNAc(b1-3)Gal(b1-4)GlcNAc(b1-3)Gal(b1-4)GlcNAc(b1-2)Man(a1-3)[Neu5Ac(a2-6)Gal(b1-4)GlcNAc(b1-3)Gal(b1-4)GlcNAc(b1-3)Gal(b1-4)GlcNAc(b1-2)Man(a1-6)]GalNAc
How it was run: as §1

[17] = target: Neu5Ac(a2-6)Gal(b1-4)GlcNAc(b1-3)Gal(b1-4)GlcNAc(b1-3)GalNAc
How it was run: as §1

[18] = target: Neu5Ac(a2-6)Gal(b1-4)GlcNAc(b1-3)Gal(b1-4)GlcNAc(b1-3)[Neu5Ac(a2-6)Gal(b1-4)GlcNAc(b1-3)Gal(b1-4)GlcNAc(b1-6)]GalNAc
How it was run: as §1

[19] = target: Neu5Ac(a2-6)Gal(b1-4)GlcNAc(b1-3)Gal(b1-4)GlcNAc(b1-6)[Gal(b1-3)]GalNAc
How it was run: as §1

[20] = target: Neu5Ac(a2-6)Gal(b1-4)GlcNAc(b1-3)Gal(b1-4)[Fuc(a1-3)]GlcNAc(b1-3)Gal(b1-4)[Fuc(a1-3)]GlcNAc
How it was run: as §1

[21] = target: Neu5Ac(a2-6)Gal(b1-4)GlcNAc(b1-3)GalNAc
How it was run: as §1

[22] = target: Neu5Ac(a2-6)Gal(b1-4)GlcNAc(b1-3)[Neu5Ac(a2-6)Gal(b1-4)GlcNAc(b1-6)]GalNAc
How it was run: as §1

[23] = target: Neu5Ac(a2-6)Gal(b1-4)GlcNAc(b1-6)GalNAc
How it was run: as §1

[24] = target: Neu5Ac(a2-6)Gal(b1-4)GlcNAc(b1-6)[Gal(b1-3)GlcNAc(b1-3)]Gal(b1-4)Glc
How it was run: as §1

[25] = target: Neu5Ac(a2-6)Gal(b1-4)GlcNAc(b1-6)[Gal(b1-3)]GalNAc
How it was run: as §1

[26] = target: Neu5Ac(a2-6)Gal(b1-4)GlcNAc6S
How it was run: as §1

Neu5Ac(a2-6)GalNAc = target: Neu5Ac(a2-6)GalNAc
How it was run: as §1

[27] = target: Neu5Ac(a2-6)GalNAc(b1-4)GlcNAc
How it was run: as §1

[28] = target: Neu5Ac(a2-6)GalNAc(b1-4)GlcNAc6S
How it was run: as §1

[29] = target: Neu5Ac(a2-6)GlcNAc(b1-4)GlcNAc
How it was run: as §1

[30] = target: Neu5Ac(a2-6)GlcNAc(b1-4)GlcNAc(b1-4)GlcNAc
How it was run: as §1

B1: Als3-N (Candida albicans) (protein)
chain: KTITGVFNSFNSLTWSNAATYNYKGPGTPTWNAVLGWSLDGTSASPGDTFTLNMPCVFKFTTSQTSVDLTAHGVKYATCQFQAGEEFMTFSTLTCTVSNTLTPSIKALGTVTLPLAFNVGGTGSSVDLEDSKCFTAGTNTVTFNDGGKKISINVDFERSNVDPKGYLTDSRVIPSLNKVSTLFVAPQCANGYTSGTMGFANTYGDVQIDCSNIHVGITKGLNDWNYPVSSESFSYTKTCSSNGIFITYKNVPAGYRPFVDAYISATDVNSYTLSYANEYTCAGGYWQRAPFTLRWTGYRNSDAGSNGIVIVATTRTVTDSTTAVTTLPFDPNRDKTKTIEILKPIPTTTITTSYVGVTTSYLTKTAPIGETATVIVDIPYHTTTTVTSKWTGTITSTTTHTNPTDSIDTVIVQVP
[1]
  glycan array binding signal (z-score): -0.114
[2]
  glycan array binding signal (z-score): -0.278
[3]
  glycan array binding signal (z-score): -0.243
[4]
  glycan array binding signal (z-score): -0.102
[5]
  glycan array binding signal (z-score): -0.341
[6]
  glycan array binding signal (z-score): -0.298
[7]
  glycan array binding signal (z-score): -0.168
[8]
  glycan array binding signal (z-score): -0.309
[9]
  glycan array binding signal (z-score): -0.151
[10]
  glycan array binding signal (z-score): -0.082
[11]
  glycan array binding signal (z-score): -0.293
[12]
  glycan array binding signal (z-score): -0.283
[13]
  glycan array binding signal (z-score): -0.287
[14]
  glycan array binding signal (z-score): 0.388
[15]
  glycan array binding signal (z-score): -0.282
[16]
  glycan array binding signal (z-score): 2.56
[17]
  glycan array binding signal (z-score): 0.057
[18]
  glycan array binding signal (z-score): 0.416
[19]
  glycan array binding signal (z-score): -0.112
[20]
  glycan array binding signal (z-score): -0.206
[21]
  glycan array binding signal (z-score): 0.258
[22]
  glycan array binding signal (z-score): -0.064
[23]
  glycan array binding signal (z-score): -0.069
[24]
  glycan array binding signal (z-score): -0.35
[25]
  glycan array binding signal (z-score): 0.187
[26]
  glycan array binding signal (z-score): -0.046
Neu5Ac(a2-6)GalNAc
  glycan array binding signal (z-score): -0.278
[27]
  glycan array binding signal (z-score): -0.29
[28]
  glycan array binding signal (z-score): 0.14
[29]
  glycan array binding signal (z-score): -0.106
[30]
  glycan array binding signal (z-score): -0.271
